Results reported in patent US20100324829A1, “METHOD OF SELECTING HLA-DP4 LIGANDS AND THE APPLICATIONS THEREOF” (priority 2001, published 2010).
Like-named read-outs stand apart in the source and are kept apart here.

Target: T1, DP401 encoded by the DPA1*0103/DPB1*0401 allele (Homo sapiens, UniProt P04440+P20036)
T1 sequence (P20036 29-260): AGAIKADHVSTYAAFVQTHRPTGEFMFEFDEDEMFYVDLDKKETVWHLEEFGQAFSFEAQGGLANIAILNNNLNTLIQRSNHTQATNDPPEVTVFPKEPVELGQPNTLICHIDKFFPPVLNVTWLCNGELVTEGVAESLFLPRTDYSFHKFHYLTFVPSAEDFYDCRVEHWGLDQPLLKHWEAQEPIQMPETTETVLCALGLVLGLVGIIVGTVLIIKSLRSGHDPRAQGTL
T1 sequence (P04440 30-258): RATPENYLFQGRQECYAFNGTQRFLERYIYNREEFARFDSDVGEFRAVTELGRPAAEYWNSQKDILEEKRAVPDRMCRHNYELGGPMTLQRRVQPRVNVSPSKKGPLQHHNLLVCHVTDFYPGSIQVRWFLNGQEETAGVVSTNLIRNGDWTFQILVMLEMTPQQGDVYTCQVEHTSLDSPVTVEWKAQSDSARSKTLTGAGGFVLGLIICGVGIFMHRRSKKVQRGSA
Details: pH 5, 24 h at 37° C.

Sequence	RF = fluorescence value in the presence of DP4/fluorescence value in the absence of DP4 (biotinylated peptide 10^−6 M)	RF = fluorescence value in the presence of DP4/fluorescence value in the absence of DP4 (biotinylated peptide 10^−7 M)	RF = fluorescence value in the presence of DP4/fluorescence value in the absence of DP4 (biotinylated peptide 10^−8 M)
AAYAAAKAAALAA [bYKL]	4.8	3.2	3
FNNFTVSFWLRVPKVSA [bTT 947-963]	1.7	3.6	2.7
GPGAPADVQYDLYLNVANRR [bIL3 127-146]	10	20	17.3
GVQIVRQIRSGERFLKIWSQ [bNS-p2]	1	4.2	7.8
IAFNSGMEPGVVAEKV [bMT 451-466]	5.5	4	2
PKYVKQNTLKLAT [bHA 306-318]	4.9	4.7	2.7
RELWWVFYAGDRALEEPHAE [bUL21 283-302]	8.3	13.3	10.1
